Here are results for 30 compounds from the supplement of paper PMC10037445.

Whole data set: some 2,900 compounds, median “IRF Lucia reporter activity, fold change vs agonist alone” near 0.9, cut for the highest 2% near 2.8. Some of the results follow.

For test [1], the system named is RAW-Dual. Briefly: IRF Lucia reporter activity, fold change vs agonist alone; cytotoxicity flag (confluency mask): not cytotoxic; higher = enhanced IRF activity. In short, it runs like this:
(§1)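 Cytotoxic wells were those whose IncuCyte confluency was below 70% of agonist controls in both mask sets. The cells were RAW-Dual macrophages at 50,000 cells/well in DMEM on 384-well plates, dosed with 50 nL of library stock by pin tool, stimulated with a PRR agonist 1 h later, and kept at 37 °C, 5% CO2 for 20 hours. IRF and NF-κB reporter activity, as fold change over agonist-alone wells, came from supernatant read by QuantiLuc luminescence and QuantiBlue absorbance, respectively.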

Test [2] relates to RAW-Dual. Briefly: IRF Lucia reporter activity, fold change vs agonist alone; higher = enhanced IRF activity. The note with it: library stock concentration (final ~1000-fold dilution): 10 mM, agonist: MPLA (TLR4) […]. In short, it runs like this:
as §1

Test [3] has as its system RAW-Dual. Briefly: IRF Lucia reporter activity, fold change vs agonist alone; cytotoxicity flag (confluency mask): cytotoxic (confluency <70% of control); higher = enhanced IRF activity. In short, it runs like this:
as §1

The mark [4] stands for this setting: agonist: 3'3'-cGAMP (STING) 10 ug/mL.
Setting [5] is: cytotoxicity flag (confluency mask): not cytotoxic.

`CC(=O)OC1CN2CCC1CC2.Cl` (configuration not stated) (library stock concentration (final ~1000-fold dilution): 10 mM): the “IRF Lucia reporter activity” value is 1.07 with RAW-Dual [1] (setting [4]) and 1.12 in the test with RAW-Dual [1] (agonist: LPS (TLR4) 0.1 ug/mL). In the case of `CC(=O)OC1CN2CCC1CC2.Cl` (configuration not stated), the “IRF Lucia reporter activity” value in the test on RAW-Dual [2] (setting [5]) stood at 1.07. Consider `CCC1CN2CCC3(C(=O)Nc4ccccc43)C2CC1/C(=C\OC)C(=O)OC` (configuration not stated) (library stock concentration (final ~1000-fold dilution): 10 mM), for which the “IRF Lucia reporter activity” value in the test with RAW-Dual [1] (setting [4]) turned out to be 1.01; in the test with RAW-Dual [1] (agonist: LPS (TLR4) 0.1 ug/mL), 0.993. Take `Nc1ncnc2c1ccn2C1OC(C(O)c2ccccc2)C(O)C1O` (configuration not stated) (library stock concentration (final ~1000-fold dilution): 10 mM): the “IRF Lucia reporter activity” value was found to be 0.852 with RAW-Dual [1] (setting [4]) and 1.02 in the test on RAW-Dual [1] (agonist: LPS (TLR4) 0.1 ug/mL).

For the compound `CCC(C(N)=O)N1CCCC1=O` (configuration not stated) (library stock concentration (final ~1000-fold dilution): 10 mM), the results for the “IRF Lucia reporter activity” value in the test with RAW-Dual [1] (setting [4]) and in the test on RAW-Dual [1] (agonist: LPS (TLR4) 0.1 ug/mL) were 1.04 and 0.965, respectively. `CCC(C(N)=O)N1CCCC1=O` (configuration not stated): the “IRF Lucia reporter activity” value with RAW-Dual [2] (setting [5]) was 1.01.

With `Cl.O=C(O)Cc1c[nH]cn1`, the “IRF Lucia reporter activity” value in the test with RAW-Dual [2] (setting [5]) turned out to be 1.02. Regarding `Cl.O=C(O)Cc1c[nH]cn1` (library stock concentration (final ~1000-fold dilution): 10 mM), the “IRF Lucia reporter activity” value stood at 1.01 with RAW-Dual [1] (setting [4]) and 1.02 in the test with RAW-Dual [1] (agonist: LPS (TLR4) 0.1 ug/mL).

`CN1C2CCC1CC(=O)C2` (library stock concentration (final ~1000-fold dilution): 10 mM): the “IRF Lucia reporter activity” value in the test with RAW-Dual [1] (setting [4]) came to 1.14; in the test with RAW-Dual [1] (agonist: LPS (TLR4) 0.1 ug/mL), 1.07.

With `CN1C2CCC1CC(=O)C2`, the “IRF Lucia reporter activity” value in the test with RAW-Dual [2] (setting [5]) is 0.837. Consider `CC[N+](C)(CC)CCOC(=O)C(O)(c1ccccc1)c1ccccc1`, for which the “IRF Lucia reporter activity” value in the test on RAW-Dual [2] (setting [5]) was found to be 1.01.

On to `CC[N+](C)(CC)CCOC(=O)C(O)(c1ccccc1)c1ccccc1` (library stock concentration (final ~1000-fold dilution): 10 mM), for which the “IRF Lucia reporter activity” value amounted to 1.01 in the test with RAW-Dual [1] (setting [4]) and 1.26 with RAW-Dual [1] (agonist: LPS (TLR4) 0.1 ug/mL). As to `CN1C2CCC1CC(OC(=O)C(CO)c1ccccc1)C2` (configuration not stated), the “IRF Lucia reporter activity” value in the test on RAW-Dual [2] (setting [5]) stood at 1.08.

`CN1C2CCC1CC(OC(=O)C(CO)c1ccccc1)C2` (configuration not stated) (library stock concentration (final ~1000-fold dilution): 10 mM): the “IRF Lucia reporter activity” value in the test with RAW-Dual [1] (setting [4]) worked out at 0.736; in the test with RAW-Dual [1] (agonist: LPS (TLR4) 0.1 ug/mL), 1.05. The matching figures for `CN1CCN(c2nc3ccccc3nc2Cl)CC1` (library stock concentration (final ~1000-fold dilution): 10 mM): 0.898 and 0.839. `CN1CCN(c2nc3ccccc3nc2Cl)CC1`: in the test with RAW-Dual [2] (setting [5]), the “IRF Lucia reporter activity” value is 0.866. Regarding `CCN1CC2(OC(=O)c3ccccc3NC(C)=O)CCC(OC)C34C1C(CC23)C1(O)CC(OC)C2CC4C1(O)C2OC` (configuration not stated) (library stock concentration (final ~1000-fold dilution): 10 mM), the “IRF Lucia reporter activity” value was found to be 1.05 in the test with RAW-Dual [1] (setting [4]) and 1.1 in the test on RAW-Dual [1] (agonist: LPS (TLR4) 0.1 ug/mL). As to `CCN1CC2(OC(=O)c3ccccc3NC(C)=O)CCC(OC)C34C1C(CC23)C1(O)CC(OC)C2CC4C1(O)C2OC` (configuration not stated), in the test on RAW-Dual [2] (setting [5]), the “IRF Lucia reporter activity” value was determined as 1.05. `COc1cc2c(cc1OC)C13CCN4CC5=CCOC6CC(=O)N2C1C6C5CC43.COc1cc2c(cc1OC)C13CCN4CC5=CCOC6CC(=O)N2C1C6C5CC43.O.O.O.O.O.O.O.O=S(=O)(O)O` (configuration not stated): the “IRF Lucia reporter activity” value in the test on RAW-Dual [2] (setting [5]) came out at 1.06. On to `COc1cc2c(cc1OC)C13CCN4CC5=CCOC6CC(=O)N2C1C6C5CC43.COc1cc2c(cc1OC)C13CCN4CC5=CCOC6CC(=O)N2C1C6C5CC43.O.O.O.O.O.O.O.O=S(=O)(O)O` (configuration not stated) (library stock concentration (final ~1000-fold dilution): 10 mM), for which the “IRF Lucia reporter activity” value amounted to 1.06 in the test on RAW-Dual [1] (setting [4]) and 0.675 with RAW-Dual [1] (agonist: LPS (TLR4) 0.1 ug/mL). For the compound `Cc1ccccc1-n1c(Cn2ncc3c(N)ncnc32)nc2cccc(C)c2c1=O`, in the test with RAW-Dual [2] (setting [5]), the “IRF Lucia reporter activity” value was 1.03. For the compound `Cc1ccccc1-n1c(Cn2ncc3c(N)ncnc32)nc2cccc(C)c2c1=O` (library stock concentration (final ~1000-fold dilution): 10 mM), the “IRF Lucia reporter activity” value in the test with RAW-Dual [1] (setting [4]) turned out to be 1.08; in the test with RAW-Dual [1] (agonist: LPS (TLR4) 0.1 ug/mL) it was 1.09.

As for `Br.CN1C2CC(OC(=O)C(CO)c3ccccc3)CC1C1OC12.O.O.O` (configuration not stated), the “IRF Lucia reporter activity” value in the test with RAW-Dual [2] (setting [5]) turned out to be 1.11. As for `Br.CN1C2CC(OC(=O)C(CO)c3ccccc3)CC1C1OC12.O.O.O` (configuration not stated) (library stock concentration (final ~1000-fold dilution): 10 mM), the “IRF Lucia reporter activity” value with RAW-Dual [1] (setting [4]) amounted to 0.889; with RAW-Dual [1] (agonist: LPS (TLR4) 0.1 ug/mL), 0.379.

In the case of `C/C(O)=C(\C#N)C(=O)Nc1cc(Br)ccc1Br` (library stock concentration (final ~1000-fold dilution): 10 mM), the results for the “IRF Lucia reporter activity” value in the test on RAW-Dual [1] (setting [4]) and in the test on RAW-Dual [1] (agonist: LPS (TLR4) 0.1 ug/mL) were 1.01 and 1.72, respectively.

`Cc1cccc(-c2ccnc3c(C(N)=O)cnn23)c1` (library stock concentration (final ~1000-fold dilution): .1 mM): the “IRF Lucia reporter activity” value with RAW-Dual [1] (setting [4]) was determined as 0.997; in the test on RAW-Dual [1] (agonist: LPS (TLR4) 0.1 ug/mL), 0.905. Take `CCC1(C)CC(=O)NC(=O)C1`: the “IRF Lucia reporter activity” value in the test on RAW-Dual [2] (setting [5]) turned out to be 1.15. Turning to `CCC1(C)CC(=O)NC(=O)C1` (library stock concentration (final ~1000-fold dilution): 10 mM), the “IRF Lucia reporter activity” value in the test with RAW-Dual [1] (setting [4]) was determined as 1.14; in the test on RAW-Dual [1] (agonist: LPS (TLR4) 0.1 ug/mL), 1.06. On to `COc1ccc(CC2NCC(O)C2OC(C)=O)cc1` (configuration not stated) (library stock concentration (final ~1000-fold dilution): 10 mM), for which the figures for the “IRF Lucia reporter activity” value in the test with RAW-Dual [3] (setting [4]) and in the test with RAW-Dual [3] (agonist: LPS (TLR4) 0.1 ug/mL) were 0.0152 and 0.0218, respectively. With `COc1ccc(CC2NCC(O)C2OC(C)=O)cc1` (configuration not stated), the “IRF Lucia reporter activity” value in the test with RAW-Dual [2] (cytotoxicity flag (confluency mask): cytotoxic (confluency <70% of control)) amounted to 0.0195.
